Structures are written as SMILES.

The subject of experiment [1] is Hh pathway in C3H10T1/2 cells. Put plainly: C3H10T1/2 Hedgehog-responsive cell-based assay, alkaline phosphatase (AP) fluorescence readout. More on the design: species or system murine. The note with it: Mus musculus, C3H 10T1/2, 120 h, SAG 30 nM, 5 days.
The subject of experiment [2] is Hh pathway in C3H10T1/2 cells. As to the kind of experiment: C3H10T1/2 AP fluorescence assay with purmorphamine (PUR) as pathway activator. It counts as cell-based, murine. The note with it: Mus musculus, C3H 10T1/2, 120 h; PUR 500 nM, 5 days, repurchased compounds; read-out: C3H10T1/2 (PUR; Flu AP, IC50 μM).
Where [3] appears, read: fluorescence AP readout, read-out: C3H10T1/2 (Flu AP, IC50 μM).
Setting [4] is: repurchased compounds, read-out: IC50, C3H10T1/2 Flu AP, retest with SAG (Figure S3).

In the case of `CN(C)c1ccccc1CN1CCCN(Cc2ccccc2N(C)C)C1c1ccncc1` [GANT61], the IC50 in experiment [1] (setting [3]) was 10.5 µM; in experiment [1] (setting [4]) it was 2.8 µM; in experiment [2], 2.5 µM.
`c1cc(CNc2ccc(N3CCCC3)cc2)ccn1` [BAS 07019774, pyridin-4-ylmethyl-(4-pyrrolidin-1-yl-phenyl)-amine]: the IC50 came to 5.5 µM in experiment [1] (setting [3]), 6.5 µM in experiment [1] (setting [4]) and 6.5 µM in experiment [2].
As for `N#Cc1ccc(C(=O)Nc2ccccc2C(=O)NC2CC2)cc1` [Compound Z27610715], the IC50 in experiment [1] (setting [3]) is 1.1 µM; in experiment [2], 8.1 µM.
